From the supplement of paper PMC4466236
The full ranking holds about 33,000 sequences; the median of “E-score (dimensionless, -0.5 to 0.5)” is about -0.058, and the highest 2% start at about 0.35. The list shows a part of the results.

Tested on: MvaT
Assay: PBM 8-mer E-score (mean of HK and ME arrays) (E-score (dimensionless, -0.5 to 0.5)); higher = stronger relative binding preference; most listed sequences are background and not binding sites
Procedure, shortened: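 Full-length P. aeruginosa MvaT carrying an N-terminal glutathione S-transferase tag was tested by protein binding microarray following a previously described protocol. Two universal double-stranded 60-mer arrays, ME and HK, were used, each with a constant 25-mer primer region and a variable 35-mer region covering all 8-mers. The rank-based E-score is the mean of the two arrays, parsed with a custom script. Its range runs from -0.5 to 0.5 for each 8-mer.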

Row | Sequence | PBM 8-mer E-score
1 | GCAGGGAA | -0.147
2 | CTTCTACA | -0.00652
3 | CGCCAACA | -0.0157
4 | GGGGAGGA | -0.402
5 | AAAACCGT | -0.101
6 | AGCTTCCT | -0.2
7 | AATCGGAA | 0.0103
8 | AGTAATGG | 0.124
9 | ATGGTTGG | 0.00713
10 | GAACCTTA | -0.126
11 | AGGACCCG | -0.183
12 | ATTTCGTG | 0.082
13 | ACTCACAC | 0.0585
14 | AACAGAGG | -0.0504
15 | GTCCAAAC | 0.0418
16 | CGTACGTC | -0.176
17 | GTACCATA | 0.203
18 | AGAGGTTG | -0.105
19 | AAATAGAC | 0.102
20 | AAGCAACA | -0.00961
21 | CAGGGTGC | -0.229
22 | CCGTCCGC | -0.108

Row | Sequence | PBM 8-mer E-score
23 | GATGAGAA | -0.0627
24 | ATAAAGCG | 0.182
25 | AGTTCGCG | 0.0814
26 | GGGCCGAA | -0.247
27 | AAACTTGT | 0.206
28 | CGATCTCA | -0.227
29 | ATCCGCAT | -0.0959
30 | CTAGAACC | -0.193
31 | AACGCCCG | -0.0548
32 | CATGAAGC | -0.125
33 | ACGTTCTG | -0.0125
34 | ACATTGCA | -0.0605
35 | CCCCGAGG | -0.277
36 | CGGTTAGA | -0.0621
37 | GCTCGAAC | -0.198
38 | AGTCAAGG | -0.0826
39 | ACACTTAC | 0.205
40 | TATGTTGA | 0.212
41 | CCAGGACA | -0.112
42 | GACGTCCA | -0.247
43 | GATGGTCC | -0.117
44 | ACGCAATA | 0.27

Row | Sequence | PBM 8-mer E-score
45 | GGCTCCAC | -0.329
46 | GCGAGGAA | -0.000183
47 | TCACGCGA | -0.0922
48 | AACGGGAG | -0.215
49 | GCACGCAC | -0.179
50 | ACACATAA | 0.273
51 | CCCCTTAA | 0.0542
52 | TCTCGGCA | 0.0682
53 | ACACGTAG | -0.0126
54 | CCTCGAGA | -0.0968
55 | ACCTCACT | -0.189
56 | GCGGGACC | -0.163
57 | GAGCTTTA | -0.147
58 | TAGACGGA | -0.214
59 | AAGCTGCT | -0.156
60 | CGTAGCAA | -0.103
61 | GAGGCTTA | -0.208
62 | CGCAGTCC | -0.172
63 | CTTCCAAC | -0.0953
64 | GTGGCTTA | -0.105
65 | CGGTAGGC | -0.203
66 | TTTTAAAA | 0.409

Row | Sequence | PBM 8-mer E-score
67 | AGGGGAGA | -0.145
68 | AGTGTACA | 0.19
69 | GCATGAAC | -0.198
70 | GCGGAATA | 0.205
71 | CGGCGTTC | -0.211
72 | CCTGGTAA | -0.0325
73 | CCTAGTAG | 0.0151
74 | ATTGATAA | 0.322
75 | CCCGACGA | -0.167
76 | CACCATGC | -0.17
77 | GAGTTTTA | 0.181
78 | AGCACAAA | 0.0677
79 | CAAGACGG | -0.127
80 | ACCGAATA | 0.227
81 | GTCCCGGA | -0.272
82 | ACCATCGT | -0.0813
83 | CAGATGGG | -0.216
84 | CAGTACCC | -0.0965
85 | ACCCACTG | -0.0978
86 | ACCTAAAA | 0.0584
